From the supplement of paper PMC12230231
± gives the standard deviation of the averaged measurements. Restriction of a single-cycle SIVsab GFP reporter by TRIM5α v1-loop variants in CRFK cells. Human variants: read share among cells still uninfected after two challenges over input, higher = gained restriction. Rhesus variants: share among infected cells over input, higher = lost restriction. Reporter dose not given per row. No active / inactive call per row; the paper calls a change when both replicates lie above its controls (mean + 2 SD of stop or wild-type variants, or the top frameshift score). Residues outside the varied loop are taken from Swiss-Prot. The paper reads the human single-substitution scores as noise; they and the rhesus combinations repeat poorly (rank correlation 0.3 to 0.4), indel scores repeat only for the top variants, rhesus substitutions well (0.9).

test system: SIVsab (simian immunodeficiency virus of sabaeus monkeys), single-cycle GFP reporter, in CRFK cells; assay: enrichment among infected cells over input (fold); higher = weaker restriction; settings: library: human / rhesus combinations
Protocol: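 Pools of CRFK cells expressing variants of the TRIM5α v1 loop were challenged with the single-cycle reporter, sorted by GFP and sequenced; mean of two replicates.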

Sequence	enrichment
MASGILLNVKEEVTCPICLELLTEPLSLHCGHSFCQACITANHKKSMLYKEGERSCPVCRISYQPENIQPNRHVANIVEKLREVKLSPEEGQKVDHCARHGEKLLLFCQEDSKVICWLCERSQEHRGHHTFLMEEVAQEYHVKLQTALEMLRQKQQEAEKLEADIREEKASWKIQIDYDKTNVSADFEQLREILDWEESNELQNLEKEEEDILKSLTKSETEMVQQTQYMRELISELEHRLQGSMMDLLQGVDGIIKRIENMTLKKPKTFHKNQRRVFRAPDLKGMLDMFRELTDARRYWVDVTLAPNNISHAVIAEDKRQVSSRNPQIMYGARGTLYTFQSLVNFNYCTGVLGSQSITSGKHYWEVDVSKKSAWILGVCAGFQSDAMYNIEQNENYQPKYGYWVIGLQEGVKYSVFQDGSSHTPFAPFIVPLSVIICPDRVGVFVDYEACTVSFFNITNHGFLIYKFSQCSFSKPVFPYLNPRKCTVPMTLCSPSS [rhesus TRIM5α, 332-344 = GARGTLYTFQSLV]	0.772 ± 0.066
MASGILLNVKEEVTCPICLELLTEPLSLHCGHSFCQACITANHKKSMLYKEGERSCPVCRISYQPENIQPNRHVANIVEKLREVKLSPEEGQKVDHCARHGEKLLLFCQEDSKVICWLCERSQEHRGHHTFLMEEVAQEYHVKLQTALEMLRQKQQEAEKLEADIREEKASWKIQIDYDKTNVSADFEQLREILDWEESNELQNLEKEEEDILKSLTKSETEMVQQTQYMRELISELEHRLQGSMMDLLQGVDGIIKRIENMTLKKPKTFHKNQRRVFRAPDLKGMLDMFRELTDARRYWVDVTLAPNNISHAVIAEDKRQVSSRNPQIMYQARGTLYTFPSFVNFNYCTGVLGSQSITSGKHYWEVDVSKKSAWILGVCAGFQSDAMYNIEQNENYQPKYGYWVIGLQEGVKYSVFQDGSSHTPFAPFIVPLSVIICPDRVGVFVDYEACTVSFFNITNHGFLIYKFSQCSFSKPVFPYLNPRKCTVPMTLCSPSS [rhesus TRIM5α, 332-344 = QARGTLYTFPSFV]	1.08 ± 0.066
MASGILLNVKEEVTCPICLELLTEPLSLHCGHSFCQACITANHKKSMLYKEGERSCPVCRISYQPENIQPNRHVANIVEKLREVKLSPEEGQKVDHCARHGEKLLLFCQEDSKVICWLCERSQEHRGHHTFLMEEVAQEYHVKLQTALEMLRQKQQEAEKLEADIREEKASWKIQIDYDKTNVSADFEQLREILDWEESNELQNLEKEEEDILKSLTKSETEMVQQTQYMRELISELEHRLQGSMMDLLQGVDGIIKRIENMTLKKPKTFHKNQRRVFRAPDLKGMLDMFRELTDARRYWVDVTLAPNNISHAVIAEDKRQVSSRNPQIMYGAPGTLYTFPSFVNFNYCTGVLGSQSITSGKHYWEVDVSKKSAWILGVCAGFQSDAMYNIEQNENYQPKYGYWVIGLQEGVKYSVFQDGSSHTPFAPFIVPLSVIICPDRVGVFVDYEACTVSFFNITNHGFLIYKFSQCSFSKPVFPYLNPRKCTVPMTLCSPSS [rhesus TRIM5α, 332-344 = GAPGTLYTFPSFV]	1.2 ± 1.1
MASGILLNVKEEVTCPICLELLTEPLSLHCGHSFCQACITANHKKSMLYKEGERSCPVCRISYQPENIQPNRHVANIVEKLREVKLSPEEGQKVDHCARHGEKLLLFCQEDSKVICWLCERSQEHRGHHTFLMEEVAQEYHVKLQTALEMLRQKQQEAEKLEADIREEKASWKIQIDYDKTNVSADFEQLREILDWEESNELQNLEKEEEDILKSLTKSETEMVQQTQYMRELISELEHRLQGSMMDLLQGVDGIIKRIENMTLKKPKTFHKNQRRVFRAPDLKGMLDMFRELTDARRYWVDVTLAPNNISHAVIAEDKRQVSSRNPQIMYQAPGTLYTFQSFTNFNYCTGVLGSQSITSGKHYWEVDVSKKSAWILGVCAGFQSDAMYNIEQNENYQPKYGYWVIGLQEGVKYSVFQDGSSHTPFAPFIVPLSVIICPDRVGVFVDYEACTVSFFNITNHGFLIYKFSQCSFSKPVFPYLNPRKCTVPMTLCSPSS [rhesus TRIM5α, 332-344 = QAPGTLYTFQSFT]	0.725 ± 0.066
MASGILLNVKEEVTCPICLELLTEPLSLHCGHSFCQACITANHKKSMLYKEGERSCPVCRISYQPENIQPNRHVANIVEKLREVKLSPEEGQKVDHCARHGEKLLLFCQEDSKVICWLCERSQEHRGHHTFLMEEVAQEYHVKLQTALEMLRQKQQEAEKLEADIREEKASWKIQIDYDKTNVSADFEQLREILDWEESNELQNLEKEEEDILKSLTKSETEMVQQTQYMRELISELEHRLQGSMMDLLQGVDGIIKRIENMTLKKPKTFHKNQRRVFRAPDLKGMLDMFRELTDARRYWVDVTLAPNNISHAVIAEDKRQVSSRNPQIMYQARGTLFTFPTFTNFNYCTGVLGSQSITSGKHYWEVDVSKKSAWILGVCAGFQSDAMYNIEQNENYQPKYGYWVIGLQEGVKYSVFQDGSSHTPFAPFIVPLSVIICPDRVGVFVDYEACTVSFFNITNHGFLIYKFSQCSFSKPVFPYLNPRKCTVPMTLCSPSS [rhesus TRIM5α, 332-344 = QARGTLFTFPTFT]	0.099 ± 0.089
MASGILLNVKEEVTCPICLELLTEPLSLHCGHSFCQACITANHKKSMLYKEGERSCPVCRISYQPENIQPNRHVANIVEKLREVKLSPEEGQKVDHCARHGEKLLLFCQEDSKVICWLCERSQEHRGHHTFLMEEVAQEYHVKLQTALEMLRQKQQEAEKLEADIREEKASWKIQIDYDKTNVSADFEQLREILDWEESNELQNLEKEEEDILKSLTKSETEMVQQTQYMRELISELEHRLQGSMMDLLQGVDGIIKRIENMTLKKPKTFHKNQRRVFRAPDLKGMLDMFRELTDARRYWVDVTLAPNNISHAVIAEDKRQVSSRNPQIMYQAPGTRYTFQTLTNFNYCTGVLGSQSITSGKHYWEVDVSKKSAWILGVCAGFQSDAMYNIEQNENYQPKYGYWVIGLQEGVKYSVFQDGSSHTPFAPFIVPLSVIICPDRVGVFVDYEACTVSFFNITNHGFLIYKFSQCSFSKPVFPYLNPRKCTVPMTLCSPSS [rhesus TRIM5α, 332-344 = QAPGTRYTFQTLT]	1.09 ± 0.27
MASGILLNVKEEVTCPICLELLTEPLSLHCGHSFCQACITANHKKSMLYKEGERSCPVCRISYQPENIQPNRHVANIVEKLREVKLSPEEGQKVDHCARHGEKLLLFCQEDSKVICWLCERSQEHRGHHTFLMEEVAQEYHVKLQTALEMLRQKQQEAEKLEADIREEKASWKIQIDYDKTNVSADFEQLREILDWEESNELQNLEKEEEDILKSLTKSETEMVQQTQYMRELISELEHRLQGSMMDLLQGVDGIIKRIENMTLKKPKTFHKNQRRVFRAPDLKGMLDMFRELTDARRYWVDVTLAPNNISHAVIAEDKRQVSSRNPQIMYGARGTRYTFQSLTNFNYCTGVLGSQSITSGKHYWEVDVSKKSAWILGVCAGFQSDAMYNIEQNENYQPKYGYWVIGLQEGVKYSVFQDGSSHTPFAPFIVPLSVIICPDRVGVFVDYEACTVSFFNITNHGFLIYKFSQCSFSKPVFPYLNPRKCTVPMTLCSPSS [rhesus TRIM5α, 332-344 = GARGTRYTFQSLT]	1.64 ± 0.047
MASGILLNVKEEVTCPICLELLTEPLSLHCGHSFCQACITANHKKSMLYKEGERSCPVCRISYQPENIQPNRHVANIVEKLREVKLSPEEGQKVDHCARHGEKLLLFCQEDSKVICWLCERSQEHRGHHTFLMEEVAQEYHVKLQTALEMLRQKQQEAEKLEADIREEKASWKIQIDYDKTNVSADFEQLREILDWEESNELQNLEKEEEDILKSLTKSETEMVQQTQYMRELISELEHRLQGSMMDLLQGVDGIIKRIENMTLKKPKTFHKNQRRVFRAPDLKGMLDMFRELTDARRYWVDVTLAPNNISHAVIAEDKRQVSSRNPQIMYGAPGTLYTFQTFVNFNYCTGVLGSQSITSGKHYWEVDVSKKSAWILGVCAGFQSDAMYNIEQNENYQPKYGYWVIGLQEGVKYSVFQDGSSHTPFAPFIVPLSVIICPDRVGVFVDYEACTVSFFNITNHGFLIYKFSQCSFSKPVFPYLNPRKCTVPMTLCSPSS [rhesus TRIM5α, 332-344 = GAPGTLYTFQTFV]	1.25 ± 0.31
MASGILLNVKEEVTCPICLELLTEPLSLHCGHSFCQACITANHKKSMLYKEGERSCPVCRISYQPENIQPNRHVANIVEKLREVKLSPEEGQKVDHCARHGEKLLLFCQEDSKVICWLCERSQEHRGHHTFLMEEVAQEYHVKLQTALEMLRQKQQEAEKLEADIREEKASWKIQIDYDKTNVSADFEQLREILDWEESNELQNLEKEEEDILKSLTKSETEMVQQTQYMRELISELEHRLQGSMMDLLQGVDGIIKRIENMTLKKPKTFHKNQRRVFRAPDLKGMLDMFRELTDARRYWVDVTLAPNNISHAVIAEDKRQVSSRNPQIMYGARGTRFTFQSFTNFNYCTGVLGSQSITSGKHYWEVDVSKKSAWILGVCAGFQSDAMYNIEQNENYQPKYGYWVIGLQEGVKYSVFQDGSSHTPFAPFIVPLSVIICPDRVGVFVDYEACTVSFFNITNHGFLIYKFSQCSFSKPVFPYLNPRKCTVPMTLCSPSS [rhesus TRIM5α, 332-344 = GARGTRFTFQSFT]	1.39 ± 0.48
MASGILLNVKEEVTCPICLELLTEPLSLHCGHSFCQACITANHKKSMLYKEGERSCPVCRISYQPENIQPNRHVANIVEKLREVKLSPEEGQKVDHCARHGEKLLLFCQEDSKVICWLCERSQEHRGHHTFLMEEVAQEYHVKLQTALEMLRQKQQEAEKLEADIREEKASWKIQIDYDKTNVSADFEQLREILDWEESNELQNLEKEEEDILKSLTKSETEMVQQTQYMRELISELEHRLQGSMMDLLQGVDGIIKRIENMTLKKPKTFHKNQRRVFRAPDLKGMLDMFRELTDARRYWVDVTLAPNNISHAVIAEDKRQVSSRNPQIMYQARGTLYTFQTFVNFNYCTGVLGSQSITSGKHYWEVDVSKKSAWILGVCAGFQSDAMYNIEQNENYQPKYGYWVIGLQEGVKYSVFQDGSSHTPFAPFIVPLSVIICPDRVGVFVDYEACTVSFFNITNHGFLIYKFSQCSFSKPVFPYLNPRKCTVPMTLCSPSS [rhesus TRIM5α, 332-344 = QARGTLYTFQTFV]	0.991 ± 0.54
MASGILLNVKEEVTCPICLELLTEPLSLHCGHSFCQACITANHKKSMLYKEGERSCPVCRISYQPENIQPNRHVANIVEKLREVKLSPEEGQKVDHCARHGEKLLLFCQEDSKVICWLCERSQEHRGHHTFLMEEVAQEYHVKLQTALEMLRQKQQEAEKLEADIREEKASWKIQIDYDKTNVSADFEQLREILDWEESNELQNLEKEEEDILKSLTKSETEMVQQTQYMRELISELEHRLQGSMMDLLQGVDGIIKRIENMTLKKPKTFHKNQRRVFRAPDLKGMLDMFRELTDARRYWVDVTLAPNNISHAVIAEDKRQVSSRNPQIMYGAPGTRFTFQSFVNFNYCTGVLGSQSITSGKHYWEVDVSKKSAWILGVCAGFQSDAMYNIEQNENYQPKYGYWVIGLQEGVKYSVFQDGSSHTPFAPFIVPLSVIICPDRVGVFVDYEACTVSFFNITNHGFLIYKFSQCSFSKPVFPYLNPRKCTVPMTLCSPSS [rhesus TRIM5α, 332-344 = GAPGTRFTFQSFV]	0.833 ± 0.14
MASGILLNVKEEVTCPICLELLTEPLSLHCGHSFCQACITANHKKSMLYKEGERSCPVCRISYQPENIQPNRHVANIVEKLREVKLSPEEGQKVDHCARHGEKLLLFCQEDSKVICWLCERSQEHRGHHTFLMEEVAQEYHVKLQTALEMLRQKQQEAEKLEADIREEKASWKIQIDYDKTNVSADFEQLREILDWEESNELQNLEKEEEDILKSLTKSETEMVQQTQYMRELISELEHRLQGSMMDLLQGVDGIIKRIENMTLKKPKTFHKNQRRVFRAPDLKGMLDMFRELTDARRYWVDVTLAPNNISHAVIAEDKRQVSSRNPQIMYQARGTRYTFQTLVNFNYCTGVLGSQSITSGKHYWEVDVSKKSAWILGVCAGFQSDAMYNIEQNENYQPKYGYWVIGLQEGVKYSVFQDGSSHTPFAPFIVPLSVIICPDRVGVFVDYEACTVSFFNITNHGFLIYKFSQCSFSKPVFPYLNPRKCTVPMTLCSPSS [rhesus TRIM5α, 332-344 = QARGTRYTFQTLV]	0.815 ± 0.28
